For 92 compounds, Potency results are on record in PubChem BioAssay AID360 (National Center for Advancing Translational Sciences (NCATS), 2006).

SMILES strings stand for the structures. Hit rate of the full screen: of about 48,000 compounds, about 550 (1.1%) were called active. About 4% were inconclusive and are not listed. Rule as the data show it: active = potency below about 15 µM; inconclusive = mostly about 16 µM to 33 µM; inactive = weaker than that. The list shows a part of the results.
Potency is read from the fitted curve at half-maximal effect.

This experiment addresses Lysosomal acid glucosylceramidase (Homo sapiens) (UniProt P04062). Nature of the experiment: Glucocerebrosidase.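 Also: the screen sought inhibitors.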 The settings on record: purified enzyme, resorufin glucoside fluorescence (screen aimed at inhibitors), 20 min. Summed up: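 Normal human glucocerebrosidase (0.2 nM final) was assayed with resorufin β-D-glucopyranoside (30 uM final) in 50mM citric acid/KH2PO4, 10mM sodium taurocholate, 0.01% tween-20, pH 5.9. Compounds were titrated; fluorescence (Ex 548, Em 600) read after 20 min at RT.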
UniProt P04062, sequence (P04062 whole entry, looked up): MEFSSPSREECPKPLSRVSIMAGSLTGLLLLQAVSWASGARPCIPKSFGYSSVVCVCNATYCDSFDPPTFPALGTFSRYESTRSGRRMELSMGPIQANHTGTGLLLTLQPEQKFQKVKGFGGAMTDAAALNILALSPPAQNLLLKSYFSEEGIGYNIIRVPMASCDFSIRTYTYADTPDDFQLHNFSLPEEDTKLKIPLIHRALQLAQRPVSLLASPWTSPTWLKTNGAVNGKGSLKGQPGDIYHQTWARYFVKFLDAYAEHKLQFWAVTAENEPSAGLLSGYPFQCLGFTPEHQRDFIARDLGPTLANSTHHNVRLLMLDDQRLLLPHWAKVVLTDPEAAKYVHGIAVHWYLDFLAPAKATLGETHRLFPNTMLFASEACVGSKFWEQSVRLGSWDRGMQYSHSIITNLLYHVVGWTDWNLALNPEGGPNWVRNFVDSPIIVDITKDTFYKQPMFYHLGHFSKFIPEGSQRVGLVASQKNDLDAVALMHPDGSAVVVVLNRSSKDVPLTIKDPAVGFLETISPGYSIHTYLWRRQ
`CC1CCCN(CCC(=O)c2ccc(Br)cc2)C1` (configuration not stated): the Potency is inactive: > 76.9 µM. Under `CC(C)NS(=O)(=O)c1ccc(OCC(=O)NCc2ccccc2)cc1` stands inactive: > 76.9 µM; under `Cc1ccc(S(=O)(=O)NCCCCCC(=O)NC(C)(C)CO)cc1`, inactive: > 76.9 µM. As for `CSc1nc2ccc(S(=O)(=O)Nc3c(C)n(C)n(-c4ccccc4)c3=O)cc2s1`, the figure is inactive: > 76.9 µM; as for `O=C(Nc1nc(-c2ccc(S(=O)(=O)N3CCCC3)cc2)cs1)C1COc2ccccc2O1` (configuration not stated), inactive: > 76.9 µM; as for `O=C(NCc1ccco1)c1cc2nc(C3CC3)cc(C(F)(F)F)n2n1`, inactive: > 76.9 µM.

As for `CC(OC(=O)c1ccco1)C(=O)NC1CCCCC1` (configuration not stated), the Potency is inactive: > 76.9 µM. As for `Cc1cc(NC(=O)c2cc(-c3ccco3)on2)no1`, the figure is inactive: > 76.9 µM. As for `CCCCn1c(CN2CCN(C)CC2)nc2ccccc21`, the figure is inactive: > 76.9 µM; as for `O=C(c1cccs1)N(CCO)Cc1cc2cc3c(cc2[nH]c1=O)OCCO3`, inactive: > 76.9 µM; as for `O=C(Nc1ccc2c(c1)OCO2)C1CCCN1C(=O)Nc1ccccc1F` (configuration not stated), inactive: > 76.9 µM.

As to `O=c1c2c3nc4ccccc4nc3n(Cc3ccccc3)c2ncn1Cc1ccco1`, the Potency was inactive: > 76.9 µM. For the compound `Cc1ccc(NC(=O)Cn2cccc2)c(Br)c1`, the Potency was inactive: > 76.9 µM.

`COCCn1nnnc1C(c1ccccc1)N1CCN(C)CC1` (configuration not stated): the Potency is inactive: > 76.9 µM. Take `Cc1cccn2cc(-c3ccccc3)nc12`: the Potency is inactive: > 76.9 µM. As for `FC(F)(F)c1cccc(-c2nnc3ccc(C(F)(F)F)cn23)c1`, the figure is inactive: > 76.9 µM; as for `COC(=O)c1cn(NC(=O)c2cccc(N(C)C)c2)c(=O)c2ccccc12`, inactive: > 76.9 µM. For the compound `CCCSc1nc(N)cc(=O)[nH]1`, the Potency entry is “inactive”. As for `Cc1cc(S(=O)(=O)Nc2c(C(=O)O)[nH]c3ccccc23)ccc1F`, the figure is inactive: > 76.9 µM; as for `COC(=O)c1cc(Br)c(=O)n(Cc2ccc(C(=O)O)cc2)c1`, inactive: > 76.9 µM; as for `COc1ccc(N2CCN(C(=O)c3ccc(N4C(=O)NC5CC4(C)Oc4ccccc45)cc3)CC2)cc1` (configuration not stated), inactive: > 76.9 µM. As to `CCCCCc1nnc(NC(=O)CS(=O)(=O)Cc2ccccc2)s1`, the Potency was inactive: > 76.9 µM. For `O=S(=O)(Nc1ccc(O)c(CN2CCCCC2)c1)c1ccccc1`, the Potency was inactive: > 76.9 µM.

Consider `COC(=O)C1=C(N)Oc2cc(C)n(CC3CCCO3)c(=O)c2C1c1ccc(Cl)cc1` (configuration not stated), for which the Potency is inactive: > 76.9 µM. Under `CN(Cc1ccccc1)Cc1c(F)cccc1F` stands inactive: > 76.9 µM.

For `CC(C)c1ccccc1N=C1SCCN1C1CCS(=O)(=O)C1` (configuration not stated), the Potency is inactive: > 76.9 µM. Under `O=C(Cn1nc(-c2ccccc2)ccc1=O)NCC1COCCO1` (configuration not stated) stands inactive: > 76.9 µM; under `O=C(c1cccc(Cl)c1Cl)N1CCN(c2ccccn2)CC1`, inactive: > 76.9 µM. As for `O=C(c1ccco1)N1CCN(S(=O)(=O)Cc2ccc(Cl)cc2)CC1`, the Potency is inactive: > 76.9 µM.

Take `CCOc1ccc(-n2cc(C(=O)N3CCN(C)CC3)c3cc(OC)c(OC)cc3c2=O)cc1`: the Potency is inactive: > 76.9 µM. For the compound `CCCCC(=O)NC(Nc1cc(C)ccn1)(C(=O)OCC)C(F)(F)F` (configuration not stated), the Potency was inactive: > 76.9 µM. Consider `COc1ccccc1N1CCN(S(=O)(=O)c2ccccc2)CC1`, for which the Potency is inactive: > 76.9 µM. Consider `COc1ccc(CC(=O)NC(C)c2nnc(SCc3nc4ccccc4c(=O)[nH]3)n2C)cc1` (configuration not stated), for which the Potency was inactive: > 76.9 µM.

As for `Cc1cc(SCC(=O)OCC(=O)N2CCN(C(=O)c3ccco3)CC2)c(C)cc1Br`, the Potency was inactive: > 76.9 µM. As for `CN/C=C1\C(=O)C(C)(C)Oc2ccc3ccc(=O)oc3c21`, the figure is inactive: > 76.9 µM. As to `CCCCCCC(c1c(C)n(C)n(-c2ccccc2)c1=O)c1c(C)n(C)n(-c2ccccc2)c1=O`, the Potency was inactive: > 76.9 µM.

Consider `O=C(c1ccc(S(=O)(=O)N2CCC(c3nc4ccccc4s3)CC2)cc1)N1CCOCC1`, for which the Potency was inactive: > 76.9 µM. `COc1ccc(Cl)cc1S(=O)(=O)N1CCN(C(=O)c2cc(OC)c(OC)c(OC)c2)CC1`: the Potency is inactive: > 76.9 µM. With `O=C(Nc1ccccc1)N1CC=C(c2ccccc2)CC1`, the Potency is inactive: > 76.9 µM.

In the case of `COc1ccc(F)cc1S(=O)(=O)Nc1ccc2c(c1)OCO2`, the Potency is inactive: > 76.9 µM. Take `Cc1cc(Nc2ccccc2)nn1C(=O)c1ccccc1`: the Potency is inactive: > 76.9 µM. As to `O=C(NC1CCCC1)C(c1cccs1)N(C(=O)c1ccno1)c1ccccc1` (configuration not stated), the Potency is inactive: > 76.9 µM.

Consider `Cc1cc(NC(=O)Cn2cc(C(F)(F)F)cc(Cl)c2=O)no1`, for which the Potency was inactive: > 76.9 µM. On to `CCOc1ccc(N2Cc3ncccc3C2=O)cc1`, for which the Potency was inactive: > 76.9 µM. With `C=CCNC(=O)c1ccc(C)c(Br)c1`, the Potency is inactive: > 76.9 µM. For `CCC(C)(C)n1nnnc1CN(Cc1ccc(Cl)cc1)Cc1ccco1`, the Potency entry is “inactive”. For `Nn1c(Cc2cccc3ccccc23)nnc1SC1CCOC1=O` (configuration not stated), the Potency was inactive: > 76.9 µM.

Consider `CCOC(=O)c1ccc(NC(=O)CCc2nc(-c3cccc(C)c3)no2)cc1`, for which the Potency is inactive: > 76.9 µM. For the compound `C=CCn1c(Cc2cccs2)nnc1SCC(=O)Nc1ccc(OC)cc1`, the Potency is inactive: > 76.9 µM. On to `O=C(Nc1ccccc1)N1CCSCC1`, for which the Potency was inactive: > 76.9 µM. Take `CCn1c(SCC(=O)Nc2nc3ccc(OC)cc3s2)nc2c1c(=O)n(C)c(=O)n2C`: the Potency is inactive: > 76.9 µM. Under `Cc1cccc(C)c1-n1nnnc1S(=O)(=O)Cc1ccccc1Cl` stands inactive: > 76.9 µM; under `COCCN1C(=O)c2oc3cc(C)c(C)cc3c(=O)c2C1c1ccc(O)cc1` (configuration not stated), inactive: > 15.4 µM; under `O=c1c2cnn(-c3ccccc3)c2ncn1Cc1cccnc1`, inactive: > 76.9 µM. Consider `CCOC(=O)C(C)c1n[nH]c(=O)c2ccccc12` (configuration not stated), for which the Potency was inactive: > 76.9 µM. Consider `OC1CCN(c2ncnc3c2nnn3Cc2c(F)cccc2Cl)CC1`, for which the Potency was inactive: > 76.9 µM.

Regarding `CNc1nc(SCC(=O)OC)nc(N2CCOCC2)n1`, the Potency is inactive: > 76.9 µM. As for `COC(=O)C1=C(NC(=O)c2ccc(C)cc2)CCS1`, the figure is inactive: > 76.9 µM; as for `CCC(C)N(C)Cc1cccc(C2(O)CCN(S(=O)(=O)c3ccc(F)cc3)CC2)c1` (configuration not stated), inactive: > 76.9 µM; as for `COC(=O)Nc1ncc(CN2CCc3ccccc3C2)s1`, inactive: > 76.9 µM.

Take `Cc1cc(S(=O)(=O)N2CCOCC2)ccc1F`: the Potency was inactive: > 76.9 µM. Take `CCc1nnc(NC(=O)CN2CCC(O)(c3ccccc3OC)CC2)s1`: the Potency is inactive: > 76.9 µM.

Regarding `CC1Cc2ccccc2N1C(=O)CN1CCc2ccccc2C1` (configuration not stated), the Potency was inactive: > 76.9 µM. Take `CCc1nc(SCC(=O)Nc2ccnc3ccccc23)n[nH]1`: the Potency was inactive: > 76.9 µM. In the case of `O=c1[nH]c(CSc2nnc(NCCCN3CCOCC3)s2)nc2cc(Cl)ccc12`, the Potency entry was “inactive”. In the case of `CCCCOC(=O)n1c(SCC(=O)N(C)C)nc2ccccc21`, the Potency is inactive: > 76.9 µM. Under `CC(C)N1CC(C(=O)Nc2nc3ccccc3s2)CC1=O` (configuration not stated) stands inactive: > 76.9 µM; under `CCn1ncc(Br)c1C(=O)Nc1nccs1`, inactive: > 76.9 µM.

As for `O=C(NCC(c1cccnc1)N1CCN(c2ccc(F)cc2)CC1)c1cccc(Cl)c1` (configuration not stated), the Potency is inactive: > 76.9 µM. On to `CC(C)c1ccc(-c2noc(C3CCCN(C(=O)c4ccc(F)cc4F)C3)n2)cc1` (configuration not stated), for which the Potency is inactive: > 76.9 µM. On to `Cc1ccc(CCNC(=O)C2CCCN(S(=O)(=O)c3c(C)noc3C)C2)cc1` (configuration not stated), for which the Potency was inactive: > 76.9 µM. On to `Cc1ccc(NC(=O)CSc2nnc(-c3ccncc3)n2N)cc1C`, for which the Potency is inactive: > 76.9 µM. As for `COc1ccc(OC)c(S(=O)(=O)Nc2ccccc2C(F)(F)F)c1`, the figure is inactive: > 76.9 µM; as for `O=S(=O)(CCSc1nc2ccccc2o1)Cc1ccccc1`, inactive: > 76.9 µM; as for `CCC1(COC(NC(=O)c2cccnc2)(C(F)(F)F)C(F)(F)F)COC1`, inactive: > 76.9 µM.

Regarding `CCCn1c(CN(C)Cc2ccccc2)nc2c1c(=O)n(C)c(=O)n2C`, the Potency was inactive: > 76.9 µM. As for `COc1cc(OC)cc(C(=O)N2CCC(n3c(C)nc4cc(F)ccc43)CC2)c1`, the figure is inactive: > 76.9 µM; as for `C=CCn1c(COC)nnc1SCC(=O)c1ccc(F)cc1`, inactive: > 76.9 µM.

Consider `Cc1cc2c(c(=O)n1Cc1ccc3c(c1)OCO3)C(c1cccnc1)C(C#N)=C(N)O2` (configuration not stated), for which the Potency was inactive: > 76.9 µM. For `Cc1cccc(CS(=O)(=O)Cc2ccc(C(=O)NCCCN3CCOCC3)o2)c1`, the Potency was inactive: > 76.9 µM. For `CC1(C)c2ccccc2N2CCC(=O)NC21/C=C/c1ccco1` (configuration not stated), the Potency is inactive: > 76.9 µM. For the compound `CC1CCN(C(=O)CCCOc2cc(=O)n(C)c3ccccc23)CC1`, the Potency is inactive: > 76.9 µM.

`COc1ccc(OC)c(S(=O)(=O)N2CCCCCC2)c1`: the Potency is inactive: > 76.9 µM.

On to `NC(=O)C1CCCNC1` (configuration not stated), for which the Potency is inactive: > 76.9 µM. As to `NC(=O)C1CCN(c2nc(C3CC3)nc3c2nnn3Cc2ccccc2)CC1`, the Potency was inactive: > 76.9 µM. Take `COCCn1nnnc1C(c1ccc(Cl)cc1)N1CCSCC1` (configuration not stated): the Potency was inactive: > 76.9 µM.

`Cc1cc(N2CCN(c3ccccc3)CC2)n2nnnc2n1`: the Potency was inactive: > 76.9 µM. Regarding `CC(OC(=O)CNC(=O)c1ccc2c(c1)OCO2)C(=O)NCCC1=CCCCC1` (configuration not stated), the Potency was inactive: > 76.9 µM. In the case of `CCCc1[nH]nc2c1C(c1ccc(Br)s1)C(C#N)=C(N)O2` (configuration not stated), the Potency was inactive: > 76.9 µM. As to `O=C1CC(c2ccco2)Cc2nc(NCC3CCCO3)ncc21` (configuration not stated), the Potency is inactive: > 76.9 µM. Under `Cc1nc2ccccc2n1CC(=O)NCCN1CCCC1` stands inactive: > 76.9 µM; under `CC(=O)c1ccc(NC(=O)C2CCCNC2=O)cc1` (configuration not stated), inactive: > 76.9 µM.
